The experiment has as its system NCI-H322M lung. Kind of experiment: inhibition of tumour cell growth, NCI panel, 48 h.

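Grown in 96-well plates, cells were treated for 48 hours with each compound at five concentrations. Insufficient inhibition: endpoint recorded as highest concentration tested. GI50: concentration for 50% inhibition of growth. TGI: total growth inhibition.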

Turning to `CC1(c2ccccc2)NC(=O)N(CC(=O)Nc2ccc(C(=O)/C=C/c3ccc(Cl)cc3)cc2)C1=O` (configuration not stated), the GI50 was 17.4 µM and the TGI amounted to 51.9 µM.

Values taken from PubChem BioAssay (NCI).
